Experimental findings from PMC4811506 are described below.

Amino acid sequences for entries named in this document (tags omitted).
UniProt Q8IYD8: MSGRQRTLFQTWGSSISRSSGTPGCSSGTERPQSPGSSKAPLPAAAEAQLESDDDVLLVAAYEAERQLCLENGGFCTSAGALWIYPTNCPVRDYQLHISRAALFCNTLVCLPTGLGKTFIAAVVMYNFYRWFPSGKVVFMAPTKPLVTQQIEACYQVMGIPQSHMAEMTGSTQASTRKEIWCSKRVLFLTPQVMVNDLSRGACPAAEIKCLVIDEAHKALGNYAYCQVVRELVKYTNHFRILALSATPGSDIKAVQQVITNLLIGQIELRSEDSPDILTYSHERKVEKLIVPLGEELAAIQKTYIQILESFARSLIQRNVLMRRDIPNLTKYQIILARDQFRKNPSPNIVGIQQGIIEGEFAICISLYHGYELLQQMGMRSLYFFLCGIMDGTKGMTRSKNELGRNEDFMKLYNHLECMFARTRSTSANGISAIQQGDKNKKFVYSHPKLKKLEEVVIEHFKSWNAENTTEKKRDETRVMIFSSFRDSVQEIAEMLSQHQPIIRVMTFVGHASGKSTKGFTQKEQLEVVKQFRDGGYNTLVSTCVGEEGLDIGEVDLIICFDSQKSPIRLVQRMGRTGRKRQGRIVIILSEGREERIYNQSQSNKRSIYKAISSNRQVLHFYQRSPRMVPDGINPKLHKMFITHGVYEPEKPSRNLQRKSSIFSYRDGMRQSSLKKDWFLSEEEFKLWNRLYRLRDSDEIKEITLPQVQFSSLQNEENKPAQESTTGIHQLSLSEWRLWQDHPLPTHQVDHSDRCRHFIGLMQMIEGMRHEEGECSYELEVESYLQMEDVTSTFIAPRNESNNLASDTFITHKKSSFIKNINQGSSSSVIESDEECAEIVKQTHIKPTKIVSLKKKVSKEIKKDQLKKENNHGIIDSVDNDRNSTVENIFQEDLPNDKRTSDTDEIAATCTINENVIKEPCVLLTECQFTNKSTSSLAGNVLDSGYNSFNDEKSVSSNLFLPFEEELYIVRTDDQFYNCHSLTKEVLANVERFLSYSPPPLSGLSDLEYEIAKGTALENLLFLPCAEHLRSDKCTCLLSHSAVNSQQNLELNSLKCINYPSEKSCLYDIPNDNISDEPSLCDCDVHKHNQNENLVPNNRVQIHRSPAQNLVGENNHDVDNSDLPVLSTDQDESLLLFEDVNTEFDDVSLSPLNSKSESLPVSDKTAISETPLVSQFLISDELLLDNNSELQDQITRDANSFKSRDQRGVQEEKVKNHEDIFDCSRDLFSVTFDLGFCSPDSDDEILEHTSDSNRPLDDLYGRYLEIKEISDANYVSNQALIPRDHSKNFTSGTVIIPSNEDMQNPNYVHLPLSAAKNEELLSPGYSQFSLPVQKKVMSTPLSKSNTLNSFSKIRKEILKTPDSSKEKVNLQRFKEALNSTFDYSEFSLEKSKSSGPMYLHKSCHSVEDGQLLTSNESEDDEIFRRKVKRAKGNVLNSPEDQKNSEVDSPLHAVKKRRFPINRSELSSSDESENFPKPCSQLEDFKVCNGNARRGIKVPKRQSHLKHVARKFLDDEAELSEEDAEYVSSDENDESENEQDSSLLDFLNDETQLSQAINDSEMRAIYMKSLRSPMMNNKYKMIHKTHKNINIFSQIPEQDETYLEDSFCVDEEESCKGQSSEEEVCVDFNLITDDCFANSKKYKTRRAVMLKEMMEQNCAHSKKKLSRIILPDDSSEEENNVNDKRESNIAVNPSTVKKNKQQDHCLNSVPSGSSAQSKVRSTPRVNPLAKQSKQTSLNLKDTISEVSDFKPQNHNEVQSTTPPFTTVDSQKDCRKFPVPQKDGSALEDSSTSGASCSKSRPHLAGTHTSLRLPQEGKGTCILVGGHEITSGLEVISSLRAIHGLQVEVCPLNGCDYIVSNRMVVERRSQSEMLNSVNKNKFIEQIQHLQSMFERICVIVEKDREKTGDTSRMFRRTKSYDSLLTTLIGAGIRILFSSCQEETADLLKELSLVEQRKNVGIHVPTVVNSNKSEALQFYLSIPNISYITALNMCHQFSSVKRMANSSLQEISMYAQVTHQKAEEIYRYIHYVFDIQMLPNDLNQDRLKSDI
UniProt Q8N2Z9: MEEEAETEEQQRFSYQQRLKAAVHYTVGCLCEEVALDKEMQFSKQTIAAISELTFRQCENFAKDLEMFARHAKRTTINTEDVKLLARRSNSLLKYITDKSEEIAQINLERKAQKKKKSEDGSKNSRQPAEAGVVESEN
UniProt Q9NVI1: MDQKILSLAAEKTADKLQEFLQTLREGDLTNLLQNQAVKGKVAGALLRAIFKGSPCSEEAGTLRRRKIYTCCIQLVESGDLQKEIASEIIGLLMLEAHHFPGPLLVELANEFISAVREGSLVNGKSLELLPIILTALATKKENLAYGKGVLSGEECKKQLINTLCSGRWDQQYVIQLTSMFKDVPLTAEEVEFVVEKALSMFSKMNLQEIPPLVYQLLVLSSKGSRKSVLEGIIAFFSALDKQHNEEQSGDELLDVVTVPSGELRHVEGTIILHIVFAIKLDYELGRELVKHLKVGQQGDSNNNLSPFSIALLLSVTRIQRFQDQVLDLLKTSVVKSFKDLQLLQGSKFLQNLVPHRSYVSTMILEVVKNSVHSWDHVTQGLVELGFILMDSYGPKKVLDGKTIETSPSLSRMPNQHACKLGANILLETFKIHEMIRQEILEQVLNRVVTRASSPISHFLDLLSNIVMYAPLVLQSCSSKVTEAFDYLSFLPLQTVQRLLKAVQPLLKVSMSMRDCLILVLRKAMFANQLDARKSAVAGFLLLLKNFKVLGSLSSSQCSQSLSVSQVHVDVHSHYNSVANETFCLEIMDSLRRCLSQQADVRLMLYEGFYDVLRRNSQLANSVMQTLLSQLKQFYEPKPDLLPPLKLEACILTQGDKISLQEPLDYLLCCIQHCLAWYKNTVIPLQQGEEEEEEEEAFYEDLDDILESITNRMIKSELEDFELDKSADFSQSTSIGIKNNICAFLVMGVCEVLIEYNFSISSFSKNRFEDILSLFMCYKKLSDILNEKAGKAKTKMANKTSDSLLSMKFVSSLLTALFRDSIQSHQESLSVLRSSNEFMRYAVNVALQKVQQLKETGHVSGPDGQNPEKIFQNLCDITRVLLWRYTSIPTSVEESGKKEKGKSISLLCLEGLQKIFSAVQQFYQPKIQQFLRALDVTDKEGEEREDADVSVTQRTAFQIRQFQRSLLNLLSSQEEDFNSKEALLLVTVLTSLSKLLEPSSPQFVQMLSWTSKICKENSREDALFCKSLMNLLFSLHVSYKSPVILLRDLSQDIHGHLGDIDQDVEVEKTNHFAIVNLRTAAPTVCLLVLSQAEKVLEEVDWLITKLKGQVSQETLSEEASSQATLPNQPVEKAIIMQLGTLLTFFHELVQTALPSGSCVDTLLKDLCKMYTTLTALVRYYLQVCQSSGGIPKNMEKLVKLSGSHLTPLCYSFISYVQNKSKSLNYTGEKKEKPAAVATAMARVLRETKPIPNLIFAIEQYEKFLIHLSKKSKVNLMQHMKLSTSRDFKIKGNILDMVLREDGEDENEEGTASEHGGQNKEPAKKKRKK
UniProt Q92949: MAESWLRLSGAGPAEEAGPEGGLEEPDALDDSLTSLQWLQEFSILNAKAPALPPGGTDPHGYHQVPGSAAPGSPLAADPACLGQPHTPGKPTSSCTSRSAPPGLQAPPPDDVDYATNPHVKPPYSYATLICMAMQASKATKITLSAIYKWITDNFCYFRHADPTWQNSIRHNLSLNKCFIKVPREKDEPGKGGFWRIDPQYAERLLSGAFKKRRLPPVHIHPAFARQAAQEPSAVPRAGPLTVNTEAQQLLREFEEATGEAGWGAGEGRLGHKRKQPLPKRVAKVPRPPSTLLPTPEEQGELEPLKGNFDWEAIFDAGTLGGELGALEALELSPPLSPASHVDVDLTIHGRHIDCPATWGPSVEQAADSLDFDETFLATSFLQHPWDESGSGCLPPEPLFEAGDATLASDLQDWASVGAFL

This assay has as its target His-Flag tagged FANCM (UniProt Q8IYD8). The assay is described as follows: co-IP; two-step affinity purification of HF-FANCM from nuclear extract of HT1080 cells (anti-Flag M2 agarose, elution with 3xFlag peptide, then Talon metal affinity resin with 3 mM imidazole); eluate immunoblotted. Background: In western blotting, separated proteins are transferred to a membrane and probed.

These are yes or no findings as the source states them, for the method shown. Binding seen in cells or lysates may run through a third protein. Some entries that bind do so weakly or less than the wild type.

Turning to MHF1 (from UniProt Q8N2Z9 1-138), the binding result was “binds”.

On to FANCI (from UniProt Q9NVI1 1-1328), for which the binding result is listed as “binds”.

Consider FoxJ1 (from UniProt Q92949 1-421), for which the binding entry is on record as “no binding”.

B1: FAAP100 (protein, UniProt Q0VG06 1-881)
chain: MAGAAPRVRYLAGFCCPLGGLAAGKPRVLCHEAEVFLSTGSELVYVYDQEGGLLTAAFRFPDQVWHLELLAPRRLLYALCARRGLYCLSLDHPGRSRSTSQDDRDSEDGDQPSPVIPVDPDACILPDAALCAFTLLDSVLVTLVQGPARWKMQLFEQPCPGEDPRPGGQIGEVELSSYTPPAGVPGKPAAPHFLPVLCSVSPSGSRVPHDLLGGSGGFTLEDALFGLLFGADATLLQSPVVLCGLPDGQLCCVILKALVTSRSAPGDPNALVKILHHLEEPVIFIGALKTEPQAAEAAENFLPDEDVHCDCLVAFGHHGRMLAIKASWDESGKLVPELREYCLPGPVLCAACGGGGRVYHSTPSDLCVVDLSRGSTPLGPEQPEEGPGGLPPMLCPASLNICSVVSLSASPRTHEGGTKLLALSAKGRLMTCSLDLDSEMPGPARMTTESAGQKIKELLSGIGNISERVSFLKKAVDQRNKALTSLNEAMNVSCALLSSGTGPRPISCTTSTTWSRLQTQDVLMATCVLENSSSFSLDQGWTLCIQVLTSSCALDLDSACSAITYTIPVDQLGPGARREVTLPLGPGENGGLDLPVTVSCTLFYSLREVVGGALAPSDSEDPFLDECPSDVLPEQEGVCLPLSRHTVDMLQCLRFPGLAPPHTRAPSPLGPTRDPVATFLETCREPGSQPAGPASLRAEYLPPSVASIKVSAELLRAALKDGHSGVPLCCATLQWLLAENAAVDVVRARALSSIQGVAPDGANVHLIVREVAMTDLCPAGPIQAVEIQVESSSLADICRAHHAVVGRMQTMVTEQATQGSSAPDLRVQYLRQIHANHETLLREVQTLRDRLCTEDEASSCATAQRLLQVYRQLRHPSLILL
For B1, the binding entry was “binds”.

B2: FoxM1 (protein, UniProt Q08050 1-763)
chain: MKTSPRRPLILKRRRLPLPVQNAPSETSEEEPKRSPAQQESNQAEASKEVAESNSCKFPAGIKIINHPTMPNTQVVAIPNNANIHSIITALTAKGKESGSSGPNKFILISCGGAPTQPPGLRPQTQTSYDAKRTEVTLETLGPKPAARDVNLPRPPGALCEQKRETCADGEAAGCTINNSLSNIQWLRKMSSDGLGSRSIKQEMEEKENCHLEQRQVKVEEPSRPSASWQNSVSERPPYSYMAMIQFAINSTERKRMTLKDIYTWIEDHFPYFKHIAKPGWKNSIRHNLSLHDMFVRETSANGKVSFWTIHPSANRYLTLDQVFKPLDPGSPQLPEHLESQQKRPNPELRRNMTIKTELPLGARRKMKPLLPRVSSYLVPIQFPVNQSLVLQPSVKVPLPLAASLMSSELARHSKRVRIAPKVLLAEEGIAPLSSAGPGKEEKLLFGEGFSPLLPVQTIKEEEIQPGEEMPHLARPIKVESPPLEEWPSPAPSFKEESSHSWEDSSQSPTPRPKKSYSGLRSPTRCVSEMLVIQHRERRERSRSRRKQHLLPPCVDEPELLFSEGPSTSRWAAELPFPADSSDPASQLSYSQEVGGPFKTPIKETLPISSTPSKSVLPRTPESWRLTPPAKVGGLDFSPVQTSQGASDPLPDPLGLMDLSTTPLQSAPPLESPQRLLSSEPLDLISVPFGNSSPSDIDVPKPGSPEPQVSGLAANRSLTEGLVLDTMNDSLSKILLDISFPGLDEDPLGPDNINWSQFIPELQ
B2: the binding entry is on record as “no binding”.

B3: FANCA (protein, UniProt O15360 1-1455)
chain: MSDSWVPNSASGQDPGGRRRAWAELLAGRVKREKYNPERAQKLKESAVRLLRSHQDLNALLLEVEGPLCKKLSLSKVIDCDSSEAYANHSSSFIGSALQDQASRLGVPVGILSAGMVASSVGQICTAPAETSHPVLLTVEQRKKLSSLLEFAQYLLAHSMFSRLSFCQELWKIQSSLLLEAVWHLHVQGIVSLQELLESHPDMHAVGSWLFRNLCCLCEQMEASCQHADVARAMLSDFVQMFVLRGFQKNSDLRRTVEPEKMPQVTVDVLQRMLIFALDALAAGVQEESSTHKIVRCWFGVFSGHTLGSVISTDPLKRFFSHTLTQILTHSPVLKASDAVQMQREWSFARTHPLLTSLYRRLFVMLSAEELVGHLQEVLETQEVHWQRVLSFVSALVVCFPEAQQLLEDWVARLMAQAFESCQLDSMVTAFLVVRQAALEGPSAFLSYADWFKASFGSTRGYHGCSKKALVFLFTFLSELVPFESPRYLQVHILHPPLVPGKYRSLLTDYISLAKTRLADLKVSIENMGLYEDLSSAGDITEPHSQALQDVEKAIMVFEHTGNIPVTVMEASIFRRPYYVSHFLPALLTPRVLPKVPDSRVAFIESLKRADKIPPSLYSTYCQACSAAEEKPEDAALGVRAEPNSAEEPLGQLTAALGELRASMTDPSQRDVISAQVAVISERLRAVLGHNEDDSSVEISKIQLSINTPRLEPREHMAVDLLLTSFCQNLMAASSVAPPERQGPWAALFVRTMCGRVLPAVLTRLCQLLRHQGPSLSAPHVLGLAALAVHLGESRSALPEVDVGPPAPGAGLPVPALFDSLLTCRTRDSLFFCLKFCTAAISYSLCKFSSQSRDTLCSCLSPGLIKKFQFLMFRLFSEARQPLSEEDVASLSWRPLHLPSADWQRAALSLWTHRTFREVLKEEDVHLTYQDWLHLELEIQPEADALSDTERQDFHQWAIHEHFLPESSASGGCDGDLQAACTILVNALMDFHQSSRSYDHSENSDLVFGGRTGNEDIISRLQEMVADLELQQDLIVPLGHTPSQEHFLFEIFRRRLQALTSGWSVAASLQRQRELLMYKRILLRLPSSVLCGSSFQAEQPITARCEQFFHLVNSEMRNFCSHGGALTQDITAHFFRGLLNACLRSRDPSLMVDFILAKCQTKCPLILTSALVWWPSLEPVLLCRWRRHCQSPLPRELQKLQEGRQFASDFLSPEAASPAPNPDWLSAAALHFAIQQVREENIRKQLKKLDCEREELLVFLFFFSLMGLLSSHLTSNSTTDLPKAFHVCAAILECLEKRKISWLALFQLTESDLRLGRLLLRVAPDQHTRLLPFAFYSLLSYFHEDAAIREEAFLHVAVDMYLKLVQLFVAGDTSTVSPPAGRSLELKGQGNPVELITKARLFLLQLIPRCPKKSFSHVAELLADRGDCDPEVSAALQSRQQAAPDADLSQEPHLF
Consider B3, for which the binding entry is “binds”.

B4: FoxA2 (protein, UniProt Q9Y261 1-457)
chain: MLGAVKMEGHEPSDWSSYYAEPEGYSSVSNMNAGLGMNGMNTYMSMSAAAMGSGSGNMSAGSMNMSSYVGAGMSPSLAGMSPGAGAMAGMGGSAGAAGVAGMGPHLSPSLSPLGGQAAGAMGGLAPYANMNSMSPMYGQAGLSRARDPKTYRRSYTHAKPPYSYISLITMAIQQSPNKMLTLSEIYQWIMDLFPFYRQNQQRWQNSIRHSLSFNDCFLKVPRSPDKPGKGSFWTLHPDSGNMFENGCYLRRQKRFKCEKQLALKEAAGAAGSGKKAAAGAQASQAQLGEAAGPASETPAGTESPHSSASPCQEHKRGGLGELKGTPAAALSPPEPAPSPGQQQQAAAHLLGPPHHPGLPPEAHLKPEHHYAFNHPFSINNLMSSEQQHHHSHHHHQPHKMDLKAYEQVMHYPGYGSPMPGSLAMGPVTNKTGLDASPLAADTSYYQGVYSRPIMNSS
B4: the binding result is listed as “no binding”.

B5: FAAP20 (protein, UniProt Q6NZ36 1-180)
chain: MEAARRPRLGLSRRRPRPAGGPSGGRPWFLLGGDERERLWAELLRTVSPELILDHEVPSLPAFPGQEPRCGPEPTEVFTVGPKTFSWTPFPPDLWGPGRSYRLLHGAGGHLESPARSLPQRPAPDPCRAPRVEQQPSVEGAAALRSCPMCQKEFAPRLTQLDVDSHLAQCLAESTEDVTW
With B5, the binding entry is “binds”.
